# Assay results from PubChem BioAssay (NCATS).
# The shares of active, inactive and inconclusive entries below differ from those in the screen. For part of these data: Potencies of inconclusive entries are left out as doubtful fits. Activity calls are given as the source filed them. Calls come from the whole dose curve; as a rule, active = well fitted curve in the direction sought with a large enough effect; inconclusive = small, poorly fitted or top-dose-only effect, or another doubt; inactive = no such curve, though single readings can be large; an effect the other way counts as inactive or inconclusive.
# What was measured:
# [1] = qHTS Screen of the MIPE 4.0 Collection Against Ewings Sarcoma (TC71) (AID 1259253); note: nearly all actives have a fitted effect of over 40% in size
# How it was run: (§1)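 Measured: ATP luminescence (CellTiter-Glo) 10 min after reagent addition, following 48 h drug treatment. Relative luciferase units converted to percent activity, with no-cell wells as full and DMSO wells as zero inhibition.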
# [2] = qHTS assay to identify small molecule inhibitors of chordoma cells - UCH-1 (AID 1259355); note: series mostly up to about 46 µM; nearly all actives have a fitted effect of over 55% in size
# How it was run: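 Luminescent ATP read-out (CellTiter-Glo, 30min at room temperature) measured viability of UCH-1 cells exposed for 48hr to test drugs at 15 concentrations, co-dosed with a five-agent combination of auranofin, camptothecin, doxorubicin, rubitecan and topotecan.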
# [3] = qHTS Screen of the MIPE 4.0 Collection Against Ewings Sarcoma (EW8) (AID 1259255); note: nearly all actives have a fitted effect of over 35% in size
# How it was run: as §1
# [4] = P-glycoprotein substrates identified in KB-8-5-11 adenocarcinoma cell line, qHTS therapeutic library screen (AID 1346987); note: nearly all actives have a fitted effect of over 65% in size
# How it was run: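 KB-8-5-11: colchicine-selected sub-line of KB-3-1 over-expressing P-gp; assay medium lacked colchicine. 72 h drug exposure at 37 degree C, CellTiter-Glo.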
# [5] = qHTS Screen of the MIPE 4.0 Collection Against Ewings Sarcoma (TC32) (AID 1259256); note: nearly all actives have a fitted effect of over 45% in size
# How it was run: as §1
# Potency is the fitted concentration of half-maximal effect; tags give direction and shape of the fitted curve.
smiles,measurement,setting,value
COC(=O)C[C@](O)(CCCC(C)(C)O)C(=O)O[C@@H]1C(OC)=C[C@]23CCCN2CCc2cc4c(cc2[C@H]13)OCO4,Potency,[1],inactive
same,Potency,[2],active: 0.199 µM
CC[C@H]1OC(=O)[C@H](C)C(=O)[C@H](C)[C@@H](O[C@H]2O[C@H](C)C[C@H](N(C)C)[C@@H]2O)[C@](C)(OC)C[C@@H](C)C(=O)[C@H](C)[C@H]2N(CCCCn3cnc(-c4cccnc4)c3)C(=O)O[C@]12C,Potency,[1],"inconclusive [inhibitor, partial curve]"
same,Potency,[3],active: 20.9 µM
same,Potency,[4],"inconclusive [inhibitor, full curve]"
N#CC(c1ccnc(NCCc2cccnc2)n1)c1nc2ccccc2s1 (configuration not stated),Potency,[5],"inconclusive [inhibitor, partial curve]"
COc1cc([C@H]2Oc3cc([C@H]4Oc5cc(O)cc(O)c5C(=O)[C@H]4O)ccc3O[C@H]2CO)ccc1O,Potency,[5],active: 16.6 µM
Cc1onc(-c2ccccc2)c1C(=O)N[C@@H]1C(=O)N2[C@@H](C(=O)O)C(C)(C)S[C@@H]12,Potency,[1],inactive
CCCCCCCCCCCC1=C(O)C(=O)C=C(O)C1=O,Potency,[1],"inconclusive [inhibitor, single point]"
same,Potency,[3],inactive
CN[C@H](CC(C)C)C(=O)N[C@H]1C(=O)N[C@@H](CC(N)=O)C(=O)N[C@@H]2C(=O)N[C@H]3C(=O)N[C@H](C(=O)N[C@H](C(=O)O)c4cc(O)cc(O)c4-c4cc3ccc4O)[C@H](O)c3ccc(c(Cl)c3)Oc3cc2cc(c3O[C@@H]2O[C@H](CO)[C@@H](O)[C@H](O)[C@@H]2O[C@H]2C[C@](C)(N)[C@H](O)[C@H](C)O2)Oc2ccc(cc2Cl)[C@H]1O,Potency,[1],inactive
same,Potency,[3],inactive
